Experimental data reported in PubChem BioAssay AID493014 (National Center for Advancing Translational Sciences (NCATS), 2011).
The whole screen tested about 340,000 compounds, of which about 170 (0.05%) were called active. Inconclusive results (about 26%) are left out. Calls come from the whole dose curve; as a rule, active = well fitted inhibition curve with a large enough effect in the signal ratio, with a control signal flat (not every such curve was filed as active); inconclusive = small, poorly fitted or top-dose-only effect, or effect the other way, or a change in a side signal; inactive = flat fitted curve, though single readings scatter; the % refers to the signal ratio. The list shows a part of the results, in another mix than the full data.

Test: qHTS Assay to Find Inhibitors of Chronic Active B-Cell Receptor Signaling;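 for activity change, negative = inhibition: plate controls were basal doxycycline-induced cells for no effect and cells given 10 µM MG132 for full effect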
Settings: ABC-DLBCL IkBa-CBG/CBR reporter, luminescence ratio (green luciferase fused to IkBa over red control in TMD8 lymphoma cells), 4 h; series mostly up to 46.1 µM; activity change, negative = inhibition: at the top concentration
Source text: NIH Molecular Libraries Probe Production Network [MLPCN] NIH Chemical Genomics Center [NCGC] MLPCN Grant: 1 R03 DA031086-01A1 PI Name: Dr. R. Eric Davis NCGC Assay Overview: Diffuse large B-cell lymphoma (DLBCL) is the most common category of non-Hodgkin lymphoma, with ~20,000 new cases per year in the United States. DLBCL should be regarded as a collection of different neoplasms. Microarray gene expression analysis has defined two principal types of DLBCL, named for their similarity to normal B cell stages or activation states: a germinal center B-cell (GCB) type, and an activated B-cell (ABC) type. In ABC-DLBCL, a constitutive high-level activity of the NF-kappaB family of transcription factors has been observed (1) and NF-kappaB target genes are more highly expressed in ABC primary tumors than in GCB tumors. Functional studies have shown a constitutive high-level activity of the IkappaB (inhibitor of kappa-B) kinase (IKK) complex. […] Further analysis of DLBCL primary tumors for NF-kappaB target gene expression imply that although CARD11 is required for constitutive IKK activity in all ABC-DLBCL lines, mutations in CARD11 may be the root cause of IKK activation only in lines or tumors with such mutations. In other words, CARD11 mutations may explain NF-kappaB activation in only 10% of ABC-DLBCL cases. […] This process has been termed 'chronic active BCR signaling' (CABS). The goal of this screen is to find small-molecule inhibitors of the CABS pathway found in ABC-DLBCL lines using a cell-based assay that measures IkappaBalpa stability, which has already been extensively validated in the OCI-Ly3 line (PubChem AID:445; REF: 4). […] The assay uses green (CBG68) and red (CBR) emitting beetle luciferases [Chroma-GloTM developed by Promega Corp.] where the green luciferase is fused to IkappaBalpha and the red luciferase is present in its native state. Both luciferase genes are stably present in the TMD8 human ABC DLBCL cell line, but their expression is under the control of tetracycline-inducible promoters. Following the addition of doxycycline to induce expression of the luciferases, the green luminescence in control cultures rises only slowly because the CBG fusion partner IkappaBalpha is targeted by IKK activity for rapid degradation. In contrast, green luminescence rises rapidly in the presence of proteasome inhibitors or IKK inhibitors. The rise in red luminescence of CBR is not affected by proteasome or IKK inhibitors, and serves as normalization for cell number and nonspecific effects. Compounds were screened as a concentration-titration series that ranged from 46 uM to 3 nM.
NCGC Assay Protocol Summary: Cells were seeded in 1536-well plates at 5000 cells/4uL in IMDM medium containing 0.5% FBS, w/o phenol red, 1% penicillin/streptomycin. Then, 23 nL of compounds or DMSO were delivered to each well using a pin tool. One uL 20ng/ml doxycycline was then dispensed into white solid 1536-well plates and the plates were incubated at 37C/5% C02 in a cell incubator for 4 hrs. Then 4 uL luminescent substrate mix (in-house prepared: 150 mM Tris-Cl, pH 7.6, 3 mM MgCl2, 1% Triton X-100, 5 mM DTT, 0.2 mM CoA, 0.15 mM ATP, 5 mM D-luciferin, final concentrations) was added to each well. The plate was incubated at r.t. for 10-15 min. The plates were measured on a ViewLux plate reader for green luminescence (540/20 nm filter) and red luminescence (618/8 nm filter). The green and red luminescent signals were corrected for red and green luminescence filter overlap using previously determined filter calibration constants (determined using the procedure outlined in the Promega Technical Manual; REF 4). The %Activity was determined from the ratio of corrected green/red luminescent values. MG132 were used as control. […] Red luminescent %Activity was normalized to the difference between red luminesence in basal cells (0%Activity) and zero luminescence (-100% Activity). […]
Potency is the fitted concentration of half-maximal effect.

Activity change, negative = inhibition, inactive:
Clc1ccccc1CN1CCN(/N=C/C=C/c2ccco2)CC1 0.437%
CC(=O)c1ccc(-c2csc(N3CCC(C(N)=O)CC3)n2)cc1 -0.811%
CC(C)(C)[C@H]1C=C(C(=O)N2CCN(Cc3ccc4c(c3)OCO4)CC2)O[C@@H](OCc2ccc(CO)cc2)C1 -15.4%
O=C(O)c1ccc2c(c1)C(=O)N(C(Cc1ccccc1)C(=O)O)C2=O (centres undefined) -0.787%
COc1ccc(NC(=O)CN2C(=O)COc3ccc(S(=O)(=O)N4CCCCCC4)cc32)cc1 5.98%
Cc1ccsc1/C=C1\SC(N2CCOCC2)=NC1=O -13.7%
O=C(C1=C[C@H](c2ccc(C(F)(F)F)cc2)C[C@H](OCCCCO)O1)N1CCN(Cc2ccccc2)CC1 -5.15%
NC1=NC[C@H](Cc2ccc(O)cc2)N1CC1CCCCC1 -1.33%
O=C(CCN1C(=O)/C(=C\c2ccccc2)SC1=S)NNC(=O)c1cccnc1 -0.0566%
O=C(C[C@@H]1C/C=C\C[C@H](NC(=O)OCC2c3ccccc3-c3ccccc32)C(=O)OC[C@H]2CCCN2C1=O)N[C@H](CO)Cc1ccccc1 -19.3%
CC(=O)Nc1ccc(NC(=O)CCSCCc2ccccn2)cc1 9.27%
CC(=O)C[C@H](O)CC(=O)[C@H]1OC(=O)CCCCCCCCc2ccccc21 1.36%
CCOC(=O)c1c(O)cc(C)[nH]c1=O 12.8%
C[C@]12C(=O)N(c3ccc(Br)cc3)C(=O)N1[C@@H]1c3ccccc3OC[C@@H]1[C@H]2c1ccccc1 -3.55%
CC(C)(C)[C@@H]1COC(=O)[C@@H](Cc2ccc(F)cc2)CC/C=C\C[C@@H](CC(=O)N(CCO)Cc2ccccc2)C(=O)N1 -2.26%
C#CCNC(=O)C1=C[C@H](c2csc3ccccc23)[C@@H](CCCO)[C@H](OCC)O1 6.03%
c1nc(NCc2ccc3c(c2)OCO3)c2cc(-c3ccoc3)ccc2n1 -2.44%
Cc1c(Cl)cnc(NC(=O)COC(=O)C(NC(=O)c2ccco2)C(C)C)c1Cl (centres undefined) 1.5%
COC(=O)C1=COC(C)C2CN3CCc4c([nH]c5ccccc45)C3CC12 (centres undefined) -1.28%
OCC[C@H]1C[C@H](O)[C@@H](O)[C@]2(CCc3ccccc3CO2)O1 0.72%
Cc1ccc(C(=O)N/C(=C/C=C\c2ccccc2)C(=O)NCc2ccco2)cc1 -0.333%
CCCNC(=O)c1ccc2c(c1)nc(C)n2-c1cccc(C)c1 -0.183%
Oc1c(C=C2N=c3ccccc3=N2)sc(=S)n1C1CCCCC1 8.34%
C[C@@H]1NC(=O)[C@@]2(C)[C@@H](c3ccccc3)[C@H]3COc4ccccc4[C@@H]3N2C1=O -0.3%
CS(=O)(=O)c1cccc(-c2csc(N3CCC(C(N)=O)CC3)n2)c1 -4.45%
Cc1cccc(N2C(=O)N3[C@@H]4c5ccccc5OC[C@@H]4[C@@H](c4ccccc4)[C@]3(C)C2=O)c1 20.5%
COc1ccc([C@@H]2CC(=O)c3c(O)cc(O[C@@H]4OC(CO[C@@H]5OC(C)[C@H](O)[C@H](O)C5O)[C@@H](O)[C@@H](O)C4O)cc3O2)cc1O (some centres undefined) 2.71%
CC1(/[N+]([O-])=C\c2ccccc2F)CCCCC1=O (centres undefined) 3.75%
CCOc1cc(/C=C2\NC(=O)NC2=O)cc([N+](=O)[O-])c1O 12.3%
C=CC[C@H](CC(=O)N(CCO)Cc1ccccc1)C(=O)NCCOC(=O)[C@@H](CC=C)Cc1ccc(F)cc1 -0.934%
CC(=O)c1cc2c(cc1N/C(=N/S(=O)(=O)c1ccc(C)cc1)c1ccc(Cl)cc1)OCO2 1.33%
Cc1cc(C)c2c(c1)[C@@H]1C=CC[C@@H]1[C@H](c1ccc(S(=O)(=O)N3CCOCC3)cc1)N2 -0.869%
CCO[C@@H]1OC(C(=O)NCc2ccccc2)=C[C@H](c2ccc(C(F)(F)F)cc2)[C@H]1CCCO 21.9%
COC(C[C@H]1O[C@H]1[C@H](O)COCc1ccccc1)OC 3.36%
O=C(C1=C[C@H](C2CC2)C[C@H](OCCCCO)O1)N1CCOCC1 11%
CC(=O)[C@H]1CC[C@H]2[C@@H]3CC=C4C[C@@H](O)CC[C@]4(C)[C@H]3CC[C@]12C -1.13%
C=CC[C@H](CC(=O)N(CCO)Cc1ccccc1)C(=O)N[C@H](COC(=O)[C@@H](CC=C)CC(=O)OC(C)(C)C)Cc1ccccc1 -0.322%
C/C=C(/C)C(=O)OC1c2c(ccc3ccc(=O)oc23)OC(C)(C)C1OC(=O)/C(C)=C\C (centres undefined) 13.7%
CN1CCN(C(=O)CCN2C(=O)/C(=C/c3ccc(F)cc3)SC2=S)CC1 -1.59%

Potency, active:
Cn1cc(/C=N/n2cnc3scc(-c4ccc(Cl)cc4)c3c2=O)c2ccccc21 3.55 µM
COc1ccc(Cn2c(=O)c3[nH]cnc3n(-c3ccccc3C)c2=O)cc1 15.8 µM
Oc1ccc(COC2CCCC2)c2cccnc12 7.31 µM
COc1cc(/C=C2\OC(=O)c3c(OC)cccc32)ccc1O 9.2 µM

Potency, inactive:
C#C[C@]1(O)CC[C@H]2[C@@H]3CCC4=CC(=O)CC[C@@H]4[C@H]3CC[C@@]21CC
